According to the RNAGym collection of RNA variant scans (doi:10.7554/elife.90254):
Read counts are not given, so values of variants with three or more changes are uncertain.

B1: LINE1-full (parent)
chain: UACGUAGGUGGUUUUCCCCUGAUAGUGCUAAGGGGGCCUGGAAGUUUGGACUGGGCAGAGCUCAACACAGCGUGGCAAAGUGGCUGUGGCUAGACUGCCUCUCUGGAUUCCUCGUCACUCAGCAGGGCAUCUCUGAGAGAAAUGCC

Variants of: B1
Experiment: self-cleavage, relative activity (ratio to wild type); higher = more cleavage; in vitro, sequencing; the parent is a self-cleaving ribozyme
U9A U13C A22G U39A showed a self-cleavage of 1.33.
U9A U39C A78G U85C A107G gave a self-cleavage of 0.
U9A A24G A65G A69G A117U showed a self-cleavage of 0.
With G7A U26A U47C U87A U104C the self-cleavage was 0.11.
A6G U45A U130C gave a self-cleavage of 1.01.
In the case of A6U A22U U39A A64U A69G U108C, the self-cleavage is reported as 0.66.
U9A U47C G86A U91C U104A showed a self-cleavage of 0.07.
For G7A U9C U96G U108C, the self-cleavage was 0.
U9A A69G U134C gave a self-cleavage of 0.53.
A6G U81A A140G showed a self-cleavage of 0.83.
Work on U9A U46C G86A U102C A117U yielded a self-cleavage of 0.18.
U9A A31G C131U gave a self-cleavage of 1.06.
Work on G7A U15C A79G G86A yielded a self-cleavage of 0.06.
Variant G8A U119A U130A has a self-cleavage of 1.33.
With G8A A30G A107G A140C the self-cleavage was 0.51.
Variant G7U A92G U102C has a self-cleavage of 0.
With U9A A31C A121G A140G the self-cleavage was 1.67.
U9A A67U U96C A142G showed a self-cleavage of 0.
In the case of A6U C63U U104G U130A, the self-cleavage is reported as 0.48.
Variant U9A A30G C66U U115A has a self-cleavage of 0.19.
For A6U A30G U39G C56U A65G U85A, the self-cleavage was 0.
In the case of A6G U39A U45C U52C U100C, the self-cleavage is reported as 1.84.
Work on A6G U46C U87C yielded a self-cleavage of 0.
In the case of G7A A42G A79G, the self-cleavage is reported as 1.18.
A6U U14C U47C showed a self-cleavage of 0.15.
Work on U9A A43G A117U A142G yielded a self-cleavage of 1.56.
U9A U62C U119A C128A showed a self-cleavage of 0.11.
A6G U29A A31U C66U A67U gave a self-cleavage of 0.33.
G7U A43G U119C gave a self-cleavage of 1.53.
G7A U29A U47C A50G C51G U81C A141G showed a self-cleavage of 2.04.
In the case of U9A G60U U87A A124U A140G, the self-cleavage is reported as 0.07.
With G8C U115A A142G the self-cleavage was 2.83.
In the case of U9A U29C U62C A124U A129G, the self-cleavage is reported as 0.
In the case of U9A U12G A43G, the self-cleavage is reported as 1.01.
Variant G7A U13C U100C has a self-cleavage of 2.54.
For U9A U20A U108C U130A, the self-cleavage was 1.81.
Work on A6U U20A A64U U143A yielded a self-cleavage of 0.6.
In the case of A6G U26A A107G, the self-cleavage is reported as 0.53.
U9A U46C A94G U96C U134A gave a self-cleavage of 0.42.
G7A U13C U39C U45A showed a self-cleavage of 1.3.
A6G U14C U46C gave a self-cleavage of 0.75.
In the case of A6G U12G U15G U26C G44A U96C, the self-cleavage is reported as 0.
G7A U26A U39C A50U gave a self-cleavage of 0.36.
Variant G7C A94G U104A A138G has a self-cleavage of 0.75.
Work on U9A U45C A78G U112C A136G A142U yielded a self-cleavage of 1.31.
For U9A U20C U100C, the self-cleavage was 2.63.
For G7A A42G A78G U81A U85A G139A, the self-cleavage was 0.21.
A6G U102C U119A gave a self-cleavage of 1.19.
Variant A6G U14A G48A A65U U130C U143A has a self-cleavage of 0.
G7U C19U U102C A107G gave a self-cleavage of 1.02.
Variant U9A U29G A79G A140G has a self-cleavage of 0.
Variant G7A U39C G88A U102C has a self-cleavage of 0.
Work on G7U U29C A42G U143C yielded a self-cleavage of 1.33.
A6G U12C U13C G36C G97C showed a self-cleavage of 0.06.
In the case of G7U A64G A69U, the self-cleavage is reported as 0.16.
Work on U9A U47A A121G yielded a self-cleavage of 0.92.
Work on A6G U109C C120A yielded a self-cleavage of 0.74.
With U9A A77G A136G the self-cleavage was 1.84.
With A6G U20C U96C the self-cleavage was 0.85.
For A6G U14C A64U C103U G106U, the self-cleavage was 0.45.
For G8A A24G U130C, the self-cleavage was 2.51.
A6U G86A U119C A129U gave a self-cleavage of 0.2.
Work on U9A U81C U85A U134A yielded a self-cleavage of 0.13.
In the case of U9A U13C A24G A77G A142G, the self-cleavage is reported as 0.32.
U9A U14C U20C U104C gave a self-cleavage of 2.26.
With A6G U87A A129G the self-cleavage was 0.43.
With G8U G41A G58A the self-cleavage was 0.08.
With A6G U13C G89A the self-cleavage was 0.18.
U9A U45C U52G showed a self-cleavage of 1.53.
G7A U9G U29A C110U showed a self-cleavage of 1.02.
Work on G7A U39C U73C A92U A124G yielded a self-cleavage of 0.
With U9A A30G G74A the self-cleavage was 0.75.
Variant A6G U15C U52A U108C has a self-cleavage of 0.66.
For G7C U14C A65G U85C, the self-cleavage was 1.67.
For A6U U73A U85C U100A G114A A124U, the self-cleavage was 0.09.
In the case of U9A U45G U62C, the self-cleavage is reported as 0.07.
For A6G U23A U46C A107G U109C, the self-cleavage was 0.66.
Work on G7A U20G U87C yielded a self-cleavage of 0.47.
Variant G7A U26A A64G G126A has a self-cleavage of 0.09.
G7A A43G U87C showed a self-cleavage of 0.48.
In the case of A6U C71A A121G, the self-cleavage is reported as 0.75.
With U9A U20A U132A the self-cleavage was 1.22.
In the case of G8A A117U G127U, the self-cleavage is reported as 1.13.
A6U A22G U119A showed a self-cleavage of 0.93.
